{"source": "the supplement of paper PMC5919970", "tested_on": "TYKNU", "assay": "fractional viability relative to vehicle; TYKNU is a high-grade serous ovarian cancer line; higher = less growth inhibition", "conditions": "72 h", "summary_of_the_method": "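TYKNU control cells or lentiCRISPRv2 knockout derivatives were seeded at 500 cells per well into drug-stamped 384-well plates holding a ~2100-compound library at 2 or 10 μM, in duplicate. Cells were grown at 37 °C in 5% CO2 in RPMI 1640 with 10% FBS, and drug treatment lasted 72 h. Viability was read by Cell Titer Glo luminescence. Duplicate treatment wells were averaged and normalised to duplicate control wells from the same plate position.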", "key": {"[1]": {"conditions": "2uM, genotype: DNM1L knockout (sgDNM1L #1)"}, "[2]": {"conditions": "2uM, genotype: sgCTRLA1 (non-targeting control)"}, "[3]": {"conditions": "10uM, genotype: DNM1L knockout (sgDNM1L #1)"}, "[4]": {"conditions": "10uM, genotype: sgCTRLA1 (non-targeting control)"}}, "note": "In all, about 2,000 compounds were measured (“fractional viability relative to vehicle”: median about 0.91, lowest 2% from about 0.045 on). The list shows a part of the results."}
{"molecule": "O=C([C@@H](Cc1cccc(C(F)(F)F)c1)NS(=O)(=O)c1cc(F)c2c(c1)CCNC2)N1CCCC1", "values": [{"measurement": "fractional viability", "setting": "[1]", "result": 0.927}, {"measurement": "fractional viability", "setting": "[2]", "result": 1.04}, {"measurement": "fractional viability", "setting": "[3]", "result": 0.863}, {"measurement": "fractional viability", "setting": "[4]", "result": 0.888}]}
{"molecule": "O=C(C=Cc1ccccc1)NC(NC(=S)Nc1ccc(Cl)cc1)C(Cl)(Cl)Cl", "note": "(stereo unspecified)", "values": [{"measurement": "fractional viability", "setting": "[1]", "result": 0.927}, {"measurement": "fractional viability", "setting": "[2]", "result": 1.02}, {"measurement": "fractional viability", "setting": "[3]", "result": 0.239}, {"measurement": "fractional viability", "setting": "[4]", "result": 0.257}]}
{"molecule": "Nc1nc(Cl)nc2c1ncn2[C@H]1C[C@H](O)[C@@H](CO)O1", "note": "[Cladribine]", "values": [{"measurement": "fractional viability", "setting": "[1]", "result": 0.38}, {"measurement": "fractional viability", "setting": "[2]", "result": 0.433}, {"measurement": "fractional viability", "setting": "[3]", "result": 0.212}, {"measurement": "fractional viability", "setting": "[4]", "result": 0.247}]}
{"molecule": "Oc1ccc([C@H]2COc3cc(O)ccc3C2)cc1", "note": "[Equol]", "values": [{"measurement": "fractional viability", "setting": "[1]", "result": 0.976}, {"measurement": "fractional viability", "setting": "[2]", "result": 1.04}, {"measurement": "fractional viability", "setting": "[3]", "result": 0.877}, {"measurement": "fractional viability", "setting": "[4]", "result": 1.05}]}
{"molecule": "Fc1ccc(C(c2ccc(F)cc2)N2CCN(C/C=C/c3ccccc3)CC2)cc1", "note": "[Flunarizine 2HCl]", "values": [{"measurement": "fractional viability", "setting": "[1]", "result": 0.928}, {"measurement": "fractional viability", "setting": "[2]", "result": 1.06}, {"measurement": "fractional viability", "setting": "[3]", "result": 0.802}, {"measurement": "fractional viability", "setting": "[4]", "result": 0.885}]}
{"molecule": "O=c1cc(-c2cccc3c2Sc2ccccc2S3)oc(N2CCOCC2)c1", "values": [{"measurement": "fractional viability", "setting": "[1]", "result": 1.22}, {"measurement": "fractional viability", "setting": "[2]", "result": 1.06}, {"measurement": "fractional viability", "setting": "[3]", "result": 0.855}, {"measurement": "fractional viability", "setting": "[4]", "result": 1.03}]}
{"molecule": "Cc1ccc(Nc2c(F)cccc2Cl)c(CC(=O)O)c1", "note": "[Lumiracoxib]", "values": [{"measurement": "fractional viability", "setting": "[1]", "result": 1.17}, {"measurement": "fractional viability", "setting": "[2]", "result": 1.14}, {"measurement": "fractional viability", "setting": "[3]", "result": 0.88}, {"measurement": "fractional viability", "setting": "[4]", "result": 0.953}]}
{"molecule": "N#Cc1c(O)c2c(-c3ccc(-c4ccccc4O)cc3)csc2[nH]c1=O", "values": [{"measurement": "fractional viability", "setting": "[1]", "result": 0.835}, {"measurement": "fractional viability", "setting": "[2]", "result": 1.09}, {"measurement": "fractional viability", "setting": "[3]", "result": 0.927}, {"measurement": "fractional viability", "setting": "[4]", "result": 0.985}]}
{"molecule": "Cc1nc2ccc(-n3ncc(C(=O)c4cc5ccccc5[nH]4)c3N)cc2[nH]1", "values": [{"measurement": "fractional viability", "setting": "[1]", "result": 0.935}, {"measurement": "fractional viability", "setting": "[2]", "result": 0.923}, {"measurement": "fractional viability", "setting": "[3]", "result": 0.958}, {"measurement": "fractional viability", "setting": "[4]", "result": 0.819}]}
{"molecule": "CCCCC(=O)O[C@H]1CC[C@H]2[C@@H]3CCc4cc(O)ccc4[C@H]3CC[C@]12C", "note": "[Estradiol valerate]", "values": [{"measurement": "fractional viability", "setting": "[1]", "result": 0.914}, {"measurement": "fractional viability", "setting": "[2]", "result": 1.12}, {"measurement": "fractional viability", "setting": "[3]", "result": 0.341}, {"measurement": "fractional viability", "setting": "[4]", "result": 0.406}]}
{"molecule": "Cc1[nH]c2ccccc2c1CCNC(=O)c1cccs1", "values": [{"measurement": "fractional viability", "setting": "[1]", "result": 0.862}, {"measurement": "fractional viability", "setting": "[2]", "result": 1.02}, {"measurement": "fractional viability", "setting": "[3]", "result": 0.91}, {"measurement": "fractional viability", "setting": "[4]", "result": 0.829}]}
{"molecule": "N=C(N)c1ccc(OCCCCCOc2ccc(C(=N)N)cc2)cc1", "note": "[Pentamidine]", "values": [{"measurement": "fractional viability", "setting": "[1]", "result": 1.02}, {"measurement": "fractional viability", "setting": "[2]", "result": 1.08}, {"measurement": "fractional viability", "setting": "[3]", "result": 0.434}, {"measurement": "fractional viability", "setting": "[4]", "result": 0.338}]}
{"molecule": "CO/N=C(\\C(=O)N[C@@H]1C(=O)N2C(C(=O)OCOC(=O)C(C)(C)C)=C(/C=C\\c3scnc3C)CS[C@H]12)c1csc(N)n1", "note": "[Cefditoren Pivoxil]", "values": [{"measurement": "fractional viability", "setting": "[1]", "result": 1.01}, {"measurement": "fractional viability", "setting": "[2]", "result": 1.13}, {"measurement": "fractional viability", "setting": "[3]", "result": 0.979}, {"measurement": "fractional viability", "setting": "[4]", "result": 1.03}]}
{"molecule": "CCCc1cc(=O)[nH]c(=S)[nH]1", "note": "[Propylthiouracil]", "values": [{"measurement": "fractional viability", "setting": "[1]", "result": 0.915}, {"measurement": "fractional viability", "setting": "[2]", "result": 1.12}, {"measurement": "fractional viability", "setting": "[3]", "result": 1.02}, {"measurement": "fractional viability", "setting": "[4]", "result": 1.02}]}
